Measured values taken from PubChem BioAssay (NCATS).
Inconclusive results, whose numbers are uncertain, are shown with a selection of clear calls. Where a call stands in place of a potency, no number is given. For some of these results: Potencies beside an inconclusive call are fits to weak or partial responses and may not hold up. Activity calls are given as the source filed them. Calls follow the shape of the dose curve; as a rule, active = well fitted curve in the direction sought with a large enough effect; inconclusive = small, poorly fitted or top-dose-only effect, or another doubt; inactive = no such curve, though single readings can be large; an effect the other way counts as inactive or inconclusive.

Experiments:
MKL-2 = experiment: qHTS assay to identify novel small-molecules to repurpose for Merkel cell carcinoma treatment (AID 1296009); details: MCC and control cell lines, CellTiter-Glo viability, 72 h; series mostly up to 46 µM; also: nearly all actives have a fitted effect of over 60% in size
How it was run: (§1)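 Viability readout: ATP luminescence (CellTiter-Glo) after 72 hr drug exposure at 37 degree celsius. Dose-response format was 8 points for NPC and 11 points for MIPE; data normalized to in-plate controls.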

MKL-1 = experiment: as above; details: MCC and control cell lines, CellTiter-Glo viability, 72 h; activity change, negative = cytotoxicity: at 46 µM (top of the series) unless noted
How it was run: as §1

OV90 = experiment: Primary qHTS to identify gynecologic anti-cancer compounds using libraries of approved drugs and bioactive compounds (AID 1345084); details: Gynecologic cancer cell panel viability, ATPlite luminescence, 48 h; series mostly up to 57.5 µM; also: nearly all actives have a fitted effect of over 55% in size
How it was run: (§2)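 Luminescence from the ATPlite ATP-monitoring reagent indicates viable cell number; lower signal means cytotoxicity. Cells received compound 16 h after seeding and were exposed for 48 h across five concentrations.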

UISO = experiment: qHTS assay to identify novel small-molecules to repurpose for Merkel cell carcinoma treatment (AID 1296009); details: MCC and control cell lines, CellTiter-Glo viability, 72 h; activity change, negative = cytotoxicity: at 46 µM (top of the series) unless noted; also: nearly all actives have a fitted effect of over 60% in size
How it was run: as §1

Es-2 = experiment: Primary qHTS to identify gynecologic anti-cancer compounds using libraries of approved drugs and bioactive compounds (AID 1345084); details: Gynecologic cancer cell panel viability, ATPlite luminescence, 48 h; series mostly up to 57.5 µM; also: nearly all actives have a fitted effect of over 55% in size
How it was run: as §2

CAOV3 = experiment: as above; details: Gynecologic cancer cell panel viability, ATPlite luminescence, 48 h; series mostly up to 57.5 µM
How it was run: as §2

WaGa = experiment: qHTS assay to identify novel small-molecules to repurpose for Merkel cell carcinoma treatment (AID 1296009); details: MCC and control cell lines, CellTiter-Glo viability, 72 h; series mostly up to 46 µM; also: nearly all actives have a fitted effect of over 60% in size
How it was run: as §1

W2 = experiment: qHTS profiling for inhibitors of Plasmodium falciparum proliferation (AID 504749); also: nearly all actives have a fitted effect of over 60% in size; details: P. falciparum in erythrocytes, SYBR Green DNA, 72 h; series mostly up to 28.7 µM
How it was run: (§3)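 Quantitative HTS: compounds pinned into medium, infected erythrocytes added (0.3% parasitemia, 2.5% hematocrit), 72 h culture at 37 C under 5% CO2. Saponin/Triton lysis with SYBR Green I, overnight RT, then fluorescence read.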

CASKI = experiment: Primary qHTS to identify gynecologic anti-cancer compounds using libraries of approved drugs and bioactive compounds (AID 1345084); details: Gynecologic cancer cell panel viability, ATPlite luminescence, 48 h; series mostly up to 57.5 µM; also: nearly all actives have a fitted effect of over 55% in size
How it was run: as §2

Hek293T = experiment: as above; details: Gynecologic cancer cell panel viability, ATPlite luminescence, 48 h, control line for the selectivity index; series mostly up to 57.5 µM
How it was run: as §2

TAB165 = experiment: qHTS profiling for inhibitors of Plasmodium falciparum proliferation (AID 504749); also: nearly all actives have a fitted effect of over 60% in size; details: P. falciparum in erythrocytes, SYBR Green DNA, 72 h; series mostly up to 28.7 µM
How it was run: as §3

HeLa = experiment: Primary qHTS to identify gynecologic anti-cancer compounds using libraries of approved drugs and bioactive compounds (AID 1345084); details: Gynecologic cancer cell panel viability, ATPlite luminescence, 48 h; series mostly up to 57.5 µM; also: nearly all actives have a fitted effect of over 55% in size
How it was run: as §2

SC27B = experiment: qHTS profiling for inhibitors of Plasmodium falciparum proliferation (AID 504749); also: nearly all actives have a fitted effect of over 60% in size; details: P. falciparum in erythrocytes, SYBR Green DNA, 72 h; series mostly up to 28.7 µM
How it was run: as §3

TAB109 = experiment: as above; details: P. falciparum in erythrocytes, SYBR Green DNA, 72 h; series mostly up to 28.7 µM
How it was run: as §3

TAB113 = experiment: as above; details: P. falciparum in erythrocytes, SYBR Green DNA, 72 h; series mostly up to 28.7 µM
How it was run: as §3

JEG-3 = experiment: Primary qHTS to identify gynecologic anti-cancer compounds using libraries of approved drugs and bioactive compounds (AID 1345084); details: Gynecologic cancer cell panel viability, ATPlite luminescence, 48 h; series mostly up to 57.5 µM; also: nearly all actives have a fitted effect of over 55% in size
How it was run: as §2

C33A = experiment: as above; details: Gynecologic cancer cell panel viability, ATPlite luminescence, 48 h; series mostly up to 57.5 µM
How it was run: as §2
Potency is read from the fitted curve at half-maximal effect; tags tell the direction and shape of the fitted curve.

COP(=S)(OC)Oc1cc(Cl)c(Cl)cc1Cl
Potency (MKL-2): inconclusive: 0.376 µM [inhibitor, full curve]

CC(O)=C(C#N)C(=O)Nc1cc(Br)ccc1Br
Potency (MKL-2): inconclusive: 37.2 µM [inhibitor, single point]

Cc1cc(O)ccc1Cl
Potency (MKL-1): inactive
Potency (OV90): inconclusive: 39.8 µM [cytotoxic, single point]

CC1=C2C[C@@H]3[C@@H](CC=C4C[C@@H](O)CC[C@@]43C)[C@@H]2CC[C@]12O[C@H]1C[C@H](C)CN[C@H]1[C@H]2C
Potency (MKL-2): inactive
Potency (UISO): inactive

CCCCCCCCCC(CC)c1ccc(S(=O)(=O)O)cc1 (stereo unspecified)
Potency (MKL-1): inactive
Potency (Es-2): inconclusive: 31.6 µM [cytotoxic, single point]
Potency (OV90): inconclusive: 0.282 µM [cytotoxic, full curve, poor fit]

N[C@@H](Cc1ccc(Oc2cc(I)c(O)c(I)c2)c(I)c1)C(=O)O
Potency (MKL-2): inactive

CCOP(=S)(OCC)O/N=C(\C#N)c1ccccc1
Potency (MKL-1): inactive
Potency (CAOV3): inactive

COc1cc(CCN)cc(OC)c1OC
Potency (MKL-2): inconclusive: 52.7 µM [inhibitor, partial curve, poor fit]

N#C[C@H](O[C@@H]1O[C@H](CO[C@@H]2O[C@H](CO)[C@H](O)[C@H](O)[C@H]2O)[C@H](O)[C@H](O)[C@H]1O)c1ccccc1
Potency (MKL-2): inconclusive: 13.2 µM [inhibitor, partial curve]
Potency (UISO): inconclusive: 20.9 µM [inhibitor, single point]
Potency (WaGa): inconclusive: 20.9 µM [inhibitor, partial curve]

O=S(=O)(O)C(F)(F)C(F)(F)C(F)(F)C(F)(F)C(F)(F)C(F)(F)C(F)(F)C(F)(F)F
Potency (MKL-2): inconclusive: 38.6 µM [inhibitor, partial curve]

CN1C(=O)CCS(=O)(=O)C1c1ccc(Cl)cc1 (stereo unspecified)
Potency (W2): inconclusive: 0.0953 µM [inhibitor, partial curve]
Potency (MKL-1): inactive
Potency (CASKI): inactive
Potency (Hek293T): inactive

CC[N+]1(C)CCCC(OC(=O)C(O)(c2ccccc2)c2ccccc2)C1 (stereo unspecified)
Potency (MKL-1): inactive
Potency (CASKI): inactive
Potency (OV90): inconclusive: 1.78 µM [rising, full curve]

CCOC(=O)c1cncn1[C@H](C)c1ccccc1
Potency (MKL-2): inactive

CC(C)(C)[C@]1(O)C[C@@H]2OC(=O)C[C@@]23C(=O)O[C@@H]2OC(=O)[C@H](O)C213 (stereo partly specified)
Potency (MKL-2): inactive

O=[N+]([O-])c1c(Cl)c(Cl)cc(Cl)c1Cl
Potency (MKL-1): inactive
Potency (Hek293T): inactive

CCC(C)(C)c1ccc(O)cc1
Potency (TAB165): inactive
Potency (MKL-1): inactive

CNCC(=O)c1ccc(O)c(O)c1
Potency (MKL-1): inactive
Potency (HeLa): inactive

O=C1c2ccccc2C(=O)c2ccccc21
Potency (SC27B): inconclusive: 17.8 µM [inhibitor, single point]
Potency (TAB109): inconclusive: 10 µM [inhibitor, single point]
Potency (TAB113): inconclusive: 17.8 µM [inhibitor, single point]
Potency (TAB165): inconclusive: 11.2 µM [inhibitor, single point]
Potency (MKL-1): inactive

COP(=O)(OC)OC=C(Cl)Cl
Potency (MKL-1): inactive
Potency (CASKI): inactive

COc1ccc2c(c1)CN(C)CC2c1ccc(Cl)c(Cl)c1 (stereo unspecified)
Potency (MKL-2): inconclusive: 9.35 µM [inhibitor, partial curve]

CCCC[N+]1(C)[C@@H]2CC(OC(=O)[C@H](CO)c3ccccc3)C[C@H]1[C@@H]1O[C@@H]12 (stereo partly specified)
Potency (MKL-2): inactive

CN(C)CCc1c[nH]c2ccccc12
Potency (MKL-2): inactive

N#Cc1nn(-c2c(Cl)cc(C(F)(F)F)cc2Cl)c(N)c1S(=O)C(F)(F)F (stereo unspecified)
Potency (TAB109): inconclusive: 10 µM [inhibitor, single point]
Potency (TAB113): active: 6.31 µM
Potency (W2): inconclusive: 16.9 µM [inhibitor, single point]
Potency (MKL-1): inconclusive: 29.9 µM [inhibitor, single point]
Potency (Hek293T): inconclusive: 39.8 µM [cytotoxic, single point]

CCN(CCO)CCn1c(Cc2ccccc2)nc2c1c(=O)n(C)c(=O)n2C
Potency (MKL-1): inactive
Potency (JEG-3): inactive
Potency (OV90): inconclusive: 4.47 µM [cytotoxic, full curve]

NCCc1cc(O)c(O)cc1O
Potency (TAB109): inconclusive: 3.98 µM [inhibitor, single point]
Potency (MKL-1): inactive

O=C(O)c1ccc(=O)[nH]c1
Potency (MKL-1): inactive
Potency (C33A): inactive
Potency (Hek293T): inactive
Potency (JEG-3): inconclusive: 3.98 µM [rising, single point]

CC(N[C@H]1C[C@H]1c1ccccc1)c1ccc2c(c1)OCCO2 (stereo partly specified)
Potency (MKL-2): inactive

CC(C)(C)C(O)C(Oc1ccc(Cl)cc1)n1cncn1 (stereo unspecified)
Potency (MKL-1): inconclusive: 38.6 µM [inhibitor, single point]
Potency (CASKI): inactive
Potency (OV90): inconclusive: 35.5 µM [cytotoxic, partial curve]

CCCC[N+]1(C)[C@H]2CC(OC(=O)[C@H](CO)c3ccccc3)C[C@H]1[C@H]1O[C@H]12 (stereo partly specified)
Potency (MKL-2): inactive
